Data reported in paper PMC6152936 (Cell reports, 2018).

Molecular target: the molecule itself
Assay: negative-stain single-particle electron microscopy

B1: TFG N terminus ([…]), wild type (domain or fragment)
chain: not shown
binding result: binds
